Reference: PubChem BioAssay AID1345082 (National Center for Advancing Translational Sciences (NCATS), 2018)
Hit rate of the full screen: of about 94,000 compounds, about 4,000 (4.3%) were called active. The shares of active, inactive and inconclusive entries below differ from those in the screen. Calls come from the whole dose curve; as a rule, active = well fitted inhibition curve with a large enough effect; inconclusive = small, poorly fitted or top-dose-only effect; inactive = no such curve, though single readings can be large or run the other way. A potency beside an inconclusive call is a rough fit, not a confirmed value.

test: Cytotoxic Profiling in NIH 3T3 Cell Line of Diverse Libraries Using Quantitative High-Throughput Screening; details: NIH 3T3 viability, CellTiter-Glo ATP luminescence, 48-72 h; series mostly up to 96.7 µM; note: nearly all actives have a fitted effect of over 55% in size
Outline: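 NIH 3T3 cells at 400 cells/well received 23 nL of compound by pintool and were incubated 48 or 72 h at 37 °C. Viability was read as ATP-coupled CellTiter-Glo luminescence.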
Potency is the fitted concentration of half-maximal effect; tags give direction and shape of the fitted curve.

Row | SMILES | Potency
1 | COc1cccc(CN2CCC(c3nn(Cc4ccccc4)c(=O)[nH]3)CC2)c1 | inactive
2 | CCc1ccc(C(=O)NC2CCN(c3cc(-c4ccccc4)[nH]n3)CC2)cc1 | inconclusive: 25.1 µM [inhibitor, full curve]
3 | O=C(Nc1ccc(Cl)cc1)NC1CCCN(c2nc3ncccc3o2)C1 (configuration not stated) | inconclusive: 50.1 µM [inhibitor, partial curve, poor fit]
4 | O=C(c1cc(=O)[nH]c2cc(F)ccc12)N1CCCC(CCc2ccc(F)cc2)C1 (configuration not stated) | inconclusive: 44.7 µM [inhibitor, full curve, poor fit]
5 | O=C(Cn1nc2c(cc1=O)CCCCC2)Nc1nc(-c2ccccn2)cs1 | inconclusive: 8.91 µM [inhibitor, full curve, poor fit]
6 | C=CCCC(CN1CCCOCC1)Oc1cc(C#N)ccn1 (configuration not stated) | inactive
7 | Cc1cccc(-c2cccc(CN3CCC(NC(=O)N(C)C)CC3)c2)c1 | inconclusive: 50.1 µM [inhibitor, partial curve, poor fit]
8 | CC(C)NC(=O)N1CC(Oc2cccc(-c3nc(-c4ccccc4)no3)c2)C1 | inconclusive: 44.7 µM [inhibitor, partial curve, poor fit]
9 | COc1cccc(NC(=O)[C@@H]2C[C@@H](c3cccc(C(F)(F)F)c3)N(C)C2)c1 | active: 79.4 µM
10 | c1cncc(CN2CCC[C@H]2c2nc(-c3ccnc(N4CCCC4)c3)no2)c1 | inconclusive: 100 µM [inhibitor, partial curve, poor fit]
11 | COc1ccc(NC(=O)N2CCCC(Cc3noc(-c4ccncc4)n3)C2)cc1 (configuration not stated) | inconclusive: 31.6 µM [inhibitor, full curve]
12 | C=CCN1C[C@H]2COc3cc(OC)ccc3[C@H]2N(C(=O)Cc2ccccc2)CCC1=O | inconclusive: 39.8 µM [inhibitor, partial curve, poor fit]
13 | COc1ccc(Nc2ccc3c(n2)CN(Cc2ccccc2)C(=O)CO3)cn1 | inconclusive: 70.8 µM [inhibitor, partial curve, poor fit]
14 | O=C(Nc1ccc2c(N3CCCC3)ncnc2c1)c1cc(F)ccc1Cl | inconclusive: 6.31 µM [inhibitor, full curve, poor fit]
15 | CNC(=O)c1cc[nH]c1C1CCCN(C(=O)c2ccc(Cn3ccnc3)o2)C1 (configuration not stated) | inactive
16 | Cc1ccnc(NCCNC(=O)C2CCC(=O)N(CC3CCCCC3)C2)c1 (configuration not stated) | inconclusive: 39.8 µM [inhibitor, full curve, poor fit]
17 | CC1=C[C@@H](CNC(=O)Nc2ccccc2)[C@H](C(C)C)C[C@H]1Cc1nnc(-c2ccncc2)o1 | inconclusive: 31.6 µM [inhibitor, partial curve, poor fit]
